Results: US11618753B2 (priority 2018, dated 2023)
Structures can show the parent of a compound that is named as a salt.

System: MLKL phosphorylation, HT29-L23 human colorectal adenocarcinoma cells
Assay: cells
Conditions: read-out: pMLKL HCS Cell Assay (IC50, uM)

`Cc1cc(C(=O)N2C[C@H](F)[C@H](NC(=O)c3cc(-c4cc(C(F)(F)F)c5c(N)ncnn45)ccc3Cl)C2)ccn1` [Example 960, 5-[4-amino-5-(trifluoromethyl)pyrrolo[2,1-f][1,2,4]triazin-7-yl]-2-chloro-N-[(3R,4S)-4-fluoro-1-(2-methylpyridine-4-carbonyl)pyrrolidin-3-yl]benzamide] was tested. Which IC50 did it give?
Its IC50 is 0.194 µM.

How did the IC50 turn out when `COc1ncc(-c2cc(C(F)(F)F)c3c(N)ncnn23)cc1C(=O)NC1CN(CC2CC2)CC1F` (racemic) [Example 197, 5-[4-amino-5-(trifluoromethyl)pyrrolo[2,1-f][1,2,4]triazin-7-yl]-N-[1-(cyclopropylmethyl)-4-fluoropyrrolidin-3-yl]-2-methoxypyridine-3-carboxamide] was run?
The IC50 was 0.064 µM.

With `COc1ncc(-c2cc(C(F)(F)F)c3c(N)ncnn23)cc1C(=O)N[C@@H]1CN(C(=O)OCCCF)C[C@@H]1F` [Example 1445, 3-fluoropropyl (3R,4S)-3-{5-[4-amino-5-(trifluoromethyl)pyrrolo[2,1-f][1,2,4]triazin-7-yl]-2-methoxypyridine-3-amido}-4-fluoropyrrolidine-1-carboxylate] as the compound, how does the IC50 read?
The IC50 was 0.0076 µM.

`Cc1cc(-c2cc(C(F)(F)F)c3c(N)ncnn23)cc(C(=O)N[C@@H]2CN(C(=O)C3CC(F)(F)C3)C[C@@H]2F)c1Cl` [Example 706, 5-[4-amino-5-(trifluoromethyl)pyrrolo[2,1-f][1,2,4]triazin-7-yl]-2-chloro-N-[(3R,4S)-1-(3,3-difluorocyclobutanecarbonyl)-4-fluoropyrrolidin-3-yl]-3-methylbenzamide] was tested. Which IC50 did it give?
Its IC50 is 0.025 µM.

Which IC50 does the source give for `Cc1ncc(-c2cc(C(F)(F)F)c3c(N)ncnn23)cc1C(=O)N[C@@H]1CN(C(=O)[C@@H](O)C(C)(C)C)C[C@@H]1F` [Example 373, 5-[4-amino-5-(trifluoromethyl)pyrrolo [2,1-f][1,2,4]triazin-7-yl]-N-[(3R,4S)-4-fluoro-1-[(2S)-2-hydroxy-3,3-dimethyl-butanoyl]pyrrolidin-3-yl]-2-methyl-pyridine-3-carboxamide] here?
Its IC50 is 0.05 µM.

Which IC50 does the source give for `Cc1ncc(-c2cc(C(F)(F)F)c3c(N)ncnn23)cc1C(=O)N[C@@H]1CN(C(=O)c2cc(F)ccc2F)C[C@@H]1F` [Example 367, 5-[4-amino-5-(trifluoromethyl)pyrrolo [2,1-f][1,2,4]triazin-7-yl]-N-[(3R,4S)-1-(2,5-difluorobenzoyl)-4-fluoro-pyrrolidin-3-yl]-2-methylpyridine-3-carboxamide] here?
Its IC50 is 0.0087 µM.

How did the IC50 turn out when `Nc1ncnn2c(-c3cncc(C(=O)N4CCC[C@H](Cc5ccc(F)cc5)C4)c3)cc(C(F)(F)F)c12` [Example 285, 7-{5-[(3R)-3-[(4-fluorophenyl)methyl]piperidine-1-carbonyl]pyridin-3-yl]-5-(trifluoromethyl) pyrrolo[2,1-f][1,2,4]triazin-4-amine] was run?
The IC50 was 0.022 µM.

Which IC50 does the source give for `COc1ncc(-c2cc(C(F)(F)F)c3c(N)ncnn23)cc1C(=O)N[C@@H]1CN(S(=O)(=O)Cc2cccc(Cl)c2)C[C@@H]1F` [Example 1491, 5-[4-amino-5-(trifluoromethyl)pyrrolo[2,1-f][1,2,4]triazin-7-yl]-N-[(3R,4S)-1-[(3-chlorophenyl)methanesulfonyl]-4-fluoropyrrolidin-3-yl]-2-methoxypyridine-3-carboxamide] here?
Its IC50 is 0.064 µM.

`Nc1ncnn2c(-c3cc(C(=O)N[C@@H]4CN(C(=O)C5CCC(F)(F)C5)C[C@@H]4F)c(Cl)cc3F)cc(CN3CC(F)(F)C3)c12` (stereo partly drawn) [Example 1310, 5-{4-amino-5-[(3,3-difluoroazetidin-1-yl)methyl]pyrrolo[2,1-f][1,2,4]-triazin-7-yl}-2-chloro-N-[(3R,4S)-1-(3,3-difluorocyclopentanecarbonyl)-4-fluoropyrrolidin-3-yl]-4-fluoro-benzamide] was tested. Which IC50 did it give?
The IC50 was 0.0015 µM.

With `CCC(O)(C(=O)N1C[C@H](F)[C@H](NC(=O)c2cc(F)cc(-c3cc(C(F)(F)F)c4c(N)ncnn34)c2)C1)C(F)(F)F` (stereo partly drawn) [Example 1316, 3-[4-amino-5-(trifluoromethyl)pyrrolo-[2,1-f][1,2,4]triazin-7-yl]-5-fluoro-N-[(3R,4S)-4-fluoro-1-[2-hydroxy-2-(trifluoromethyl)butanoyl]pyrrolidin-3-yl]benzamide] as the compound, how does the IC50 read?
The IC50 was 0.0068 µM.

Which IC50 does the source give for `Nc1ncnn2c(-c3cc(C(=O)N[C@@H]4CN(C(=O)c5ccc(F)cc5)C[C@@H]4F)ccc3F)cc(C(F)(F)F)c12` [Example 421, 3-[4-amino-5-(trifluoromethyl)pyrrolo[2,1-f][1,2,4]triazin-7-yl]-4-fluoro-N-[(3R,4S)-4-fluoro-1-(4-fluorobenzoyl)pyrrolidin-3-yl] benzamide, TFA] here?
Its IC50 is 0.037 µM.

`COc1ncc(-c2cc(CN3CCC(F)(F)CC3)c3c(N)ncnn23)cc1C(=O)N[C@@H]1CN(C(=O)c2ccncc2)C[C@@H]1F` [Example 1237, 5-{4-amino-5-[(4,4-difluoropiperidin-1-yl)methyl]pyrrolo[2,1-f][1,2,4]triazin-7-yl}-N-[(3R,4S)-4-fluoro-1-(pyridine-4-carbonyl)pyrrolidin-3-yl]-2-methoxypyridine-3-carboxamide] was tested. Which IC50 did it give?
Its IC50 is 0.0009 µM.

For `Cc1ncc(-c2cc(C(F)(F)F)c3c(N)ncnn23)cc1C(=O)Nc1cnn(CC(F)(F)F)c1` [Example 176, 5-[4-amino-5-(trifluoromethyl)pyrrolo[2,1-f][1,2,4]triazin-7-yl]-2-methyl-N-[1-(2,2,2-trifluoroethyl)-1H-pyrazol-4-yl]pyridine-3-carboxamide], which IC50 is on record?
Its IC50 is 0.066 µM.

Which IC50 does the source give for `COc1ncc(-c2cc(C(F)(F)F)c3c(N)ncnn23)cc1C(=O)NCCN1CCCC(c2ccccc2)C1` (stereo not shown) [Example 1722, 5-(4-amino-5-(trifluoromethyl)pyrrolo[2,1-f][1,2,4]triazin-7-yl)-2-methoxy-N-(2-(3-phenylpiperidin-1-yl)ethyl)nicotinamide] here?
The IC50 was 0.295 µM.

With `COc1ncc(-c2cc(CN3CCC(C(F)(F)F)CC3)c3c(N)ncnn23)cc1C(=O)N[C@@H]1CN(C(=O)C2CC(F)(F)C2)C[C@@H]1F` [Example 1597, 5-(4-amino-5-{[4-(trifluoromethyl)piperidin-1-yl]methyl}pyrrolo[2,1-f][1,2,4]triazin-7-yl)-N-[(3R,4S)-1-(3,3-difluorocyclobutanecarbonyl)-4-fluoropyrrolidin-3-yl]-2-methoxypyridine-3-carboxamide] as the compound, how does the IC50 read?
Its IC50 is 0.0086 µM.

With `COc1ncc(-c2cc(CN3CCC(F)(F)CC3)c3c(N)ncnn23)cc1C(=O)N[C@@H]1CN(C(=O)OC2(C(F)(F)F)CCC2)C[C@@H]1F` [Example 1511, 1-(trifluoromethyl)cyclobutyl (3R,4S)-3-(5-{4-amino-5-[(4,4-difluoropiperidin-1-yl)methyl]pyrrolo[2,1-f][1,2,4]triazin-7-yl}-2-methoxypyridine-3-amido)-4-fluoropyrrolidine-1-carboxylate] as the compound, how does the IC50 read?
Its IC50 is 0.006 µM.

With `Cc1c(F)cc(-c2cc(CN3CC(F)(F)C3)c3c(N)ncnn23)cc1C(=O)N[C@@H]1CN(C(=O)C2CC2(F)F)C[C@@H]1F` (stereo partly drawn) [Example 1564, 5-{4-amino-5-[(3,3-difluoroazetidin-1-yl)methyl]pyrrolo[2,1-f][1,2,4]triazin-7-yl}-N-[(3R,4S)-1-(2,2-difluorocyclopropanecarbonyl)-4-fluoropyrrolidin-3-yl]-3-fluoro-2-methylbenzamide] as the compound, how does the IC50 read?
Its IC50 is 0.001 µM.

For `Nc1ncnn2c(-c3cc(C(=O)N[C@@H]4CN(C(=O)C5(O)CCCC5)C[C@@H]4F)c(Cl)cc3F)cc(C(F)(F)F)c12` [Example 397, 5-[4-amino-5-(trifluoromethyl)pyrrolo[2,1-f][1,2,4]triazin-7-yl]-2-chloro-4-fluoro-N-[(3R,4S)-4-fluoro-1-(1-hydroxycyclopentanecarbonyl)pyrrolidin-3-yl] benzamide, TFA], which IC50 is on record?
Its IC50 is 0.0087 µM.

How did the IC50 turn out when `Cc1c(F)cc(-c2cc(C(F)(F)F)c3c(N)ncnn23)cc1C(=O)N[C@@H]1CN(C(=O)C2CC23CC3)C[C@@H]1F` (stereo partly drawn) [Example 1317, 5-[4-amino-5-(trifluoromethyl)pyrrolo-[2,1-f][1,2,4]triazin-7-yl]-3-fluoro-N-((3R,4S)-4-fluoro-1-{spiro[2.2]pentane-1-carbonyl}pyrrolidin-3-yl]-2-methyl-benzamide] was run?
Its IC50 is 0.0075 µM.

With `COc1ncc(-c2cc(C(F)(F)F)c3c(N)ncnn23)cc1C(=O)N[C@@H]1CN(S(=O)(=O)Cc2ccccc2[N+](=O)[O-])C[C@@H]1F` [Example 1487, 5-[4-amino-5-(trifluoromethyl)pyrrolo[2,1-f][1,2,4]triazin-7-yl]-N-[(3R,4S)-4-fluoro-1-[(2-nitrophenyl)methanesulfonyl]pyrrolidin-3-yl]-2-methoxypyridine-3-carboxamide] as the compound, how does the IC50 read?
Its IC50 is 0.031 µM.

`Nc1ncnn2c(-c3ccc(Cl)c(C(=O)N[C@@H]4CN(C(=O)c5ncc(F)cc5F)C[C@@H]4F)c3)cc(C(F)(F)F)c12` [Example 945, 5-[4-amino-5-(trifluoromethyl)pyrrolo[2,1-f][1,2,4]triazin-7-yl]-2-chloro-N-[(3R,4S)-1-(3,5-difluoropyridine-2-carbonyl)-4-fluoropyrrolidin-3-yl]benzamide] was tested. Which IC50 did it give?
Its IC50 is 0.065 µM.

For `COc1ncc(-c2cc(C(=O)NCCNC(C)=O)c3c(N)ncnn23)cc1C(=O)N1CCC[C@@H](Cc2ccc(F)cc2)C1` [Example 471], which IC50 is on record?
The IC50 was 0.143 µM.

With `CCCNC(=O)c1cc(-c2cnc(OC)c(C(=O)NCC[C@H](O)c3ccc(Cl)cc3)c2)n2ncnc(N)c12` [Example 475, 5-[4-amino-5-(propylcarbamoyl)pyrrolo[2,1 f][1,2,4]triazin-7-yl]-N-[(3S)-3-(4-chlorophenyl)-3-hydroxypropyl]-2-methoxypyrine-3-carboxamide] as the compound, how does the IC50 read?
Its IC50 is 0.047 µM.

How did the IC50 turn out when `COc1ncc(-c2c(C#N)cc3c(N)ncnn23)cc1C(=O)N[C@@H]1CN(C(=O)C(C)(C)C(F)(F)F)C[C@@H]1F` [Example 560, 5-(4-amino-6-cyanopyrrolo[2,1-f][1,2,4]triazin-7-yl)-N-((3R,4S)-4-fluoro-1-(3,3,3-trifluoro-2,2-dimethylpropanoyl)pyrrolidin-3-yl)-2-methoxynicotinamide] was run?
The IC50 was 0.219 µM.

Which IC50 does the source give for `Cc1ccc(-c2cc(C(F)(F)F)c3c(N)ncnn23)cc1C(=O)N[C@@H]1CN(C(=O)c2ccccc2Cl)C[C@@H]1F` [Example 1020, 5-[4-amino-5-(trifluoromethyl)pyrrolo[2,1-f][1,2,4]triazin-7-yl]-N-[(3R,4S)-1-(2-chlorobenzoyl)-4-fluoropyrrolidin-3-yl]-2-methylbenzamide] here?
Its IC50 is 0.0076 µM.
